# According to article PMC4336329 (PLoS ONE, 2015):
# Out of some 310,000 compounds screened, about 2,200 (0.71%) showed an effect of 50% or more. Effects have a minus sign here. The list shows a part of the results.
# Target: human ether-à-go-go-related gene (hERG) potassium channel (human, UniProt Q12809)
# Experiment: primary screen, population patch clamp on CHO cells stably expressing hERG
# human ether-à-go-go-related gene (hERG) potassium channel, sequence (Q12809 whole entry, looked up): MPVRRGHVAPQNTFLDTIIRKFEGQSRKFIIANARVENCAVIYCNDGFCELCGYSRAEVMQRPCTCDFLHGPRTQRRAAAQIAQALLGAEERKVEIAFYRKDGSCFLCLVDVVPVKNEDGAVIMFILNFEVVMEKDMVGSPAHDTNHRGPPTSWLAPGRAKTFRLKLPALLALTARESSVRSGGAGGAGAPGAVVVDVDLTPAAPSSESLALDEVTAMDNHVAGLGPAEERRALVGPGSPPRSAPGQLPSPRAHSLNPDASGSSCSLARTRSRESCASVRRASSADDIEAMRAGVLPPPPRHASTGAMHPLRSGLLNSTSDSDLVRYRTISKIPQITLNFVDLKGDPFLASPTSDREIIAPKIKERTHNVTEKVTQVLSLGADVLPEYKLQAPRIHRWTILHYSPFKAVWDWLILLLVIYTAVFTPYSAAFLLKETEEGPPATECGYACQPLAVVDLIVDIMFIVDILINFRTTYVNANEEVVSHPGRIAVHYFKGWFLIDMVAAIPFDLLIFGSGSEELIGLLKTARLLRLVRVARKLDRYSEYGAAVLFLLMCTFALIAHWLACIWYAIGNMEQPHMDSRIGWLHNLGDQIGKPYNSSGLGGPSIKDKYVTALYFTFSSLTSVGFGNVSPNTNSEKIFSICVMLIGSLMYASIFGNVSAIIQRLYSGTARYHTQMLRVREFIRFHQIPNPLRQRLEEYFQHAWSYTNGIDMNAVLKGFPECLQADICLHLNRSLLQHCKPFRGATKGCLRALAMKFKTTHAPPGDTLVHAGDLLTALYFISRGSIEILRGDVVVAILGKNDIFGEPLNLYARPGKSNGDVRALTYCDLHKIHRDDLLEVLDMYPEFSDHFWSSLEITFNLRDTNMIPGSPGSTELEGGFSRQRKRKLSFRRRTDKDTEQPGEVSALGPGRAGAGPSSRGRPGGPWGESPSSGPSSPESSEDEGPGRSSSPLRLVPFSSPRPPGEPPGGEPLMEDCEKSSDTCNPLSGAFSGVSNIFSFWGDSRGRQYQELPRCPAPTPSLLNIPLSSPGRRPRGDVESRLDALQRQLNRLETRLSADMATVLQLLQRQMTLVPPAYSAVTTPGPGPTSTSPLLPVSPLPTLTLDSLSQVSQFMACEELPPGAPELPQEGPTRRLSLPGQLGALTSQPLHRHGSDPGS
row,SMILES,"hERG current change (%, negative = inhibition) at 1uM [%]"
1,O=C1c2ccccc2NC(c2ccc3c(c2)OCCO3)N1c1ccc2c(c1)OCCO2 (centres unmarked),14.2
2,COc1ccccc1CCCNC(=O)C1CCC(=O)N(CCc2ccc(Cl)cc2)C1 (centres unmarked),-3.88
3,CCCOc1cccc(C(=O)Nc2cccc3ncccc23)c1,10.9
4,COc1ccc(NC(=O)N2c3ccccc3C(C)=CC2(C)C)cc1,11
5,Cn1nc(C(=O)Nc2cccc(S(N)(=O)=O)c2)c2ccccc2c1=O,8.69
6,COc1cc(C(=O)NCCc2c[nH]c3ccccc23)ccc1OCc1c(C)noc1C,5.8
7,Nc1nc(SCC(=O)N2N=C3/C(=C/c4ccco4)CCCC3C2c2ccco2)n[nH]1 (centres unmarked),-5.91
8,Cc1cc(Nc2cccc(C(F)(F)F)c2)n2nc(C)nc2n1,-13.6
9,COC(=O)c1c(NC(=O)C2c3ccccc3Oc3ccccc32)sc(C)c1C,11.8
10,CC1=NN(c2ccccc2)C(=O)C1C(=O)c1ccc(Cl)cc1 (centres unmarked),9.97
11,O=C(Cc1cccc2ccccc12)Nc1ccc2c(c1)C(=O)NC2=O,8.61
12,COc1ccc(C(=O)/C=C/c2ccc(OC)c(COc3ccccc3F)c2)cc1,6.63
13,C=CCOc1ccc(Oc2cc(C)nc(SC)n2)nn1,10
14,O=C(O)CN1CCc2ccccc2C1,12.4
15,CCOC(=O)/C=C/C(=O)Nc1ccccc1-c1ccccc1NC(=O)/C=C/C(=O)OCC,12.9
16,CCc1cccc(C)c1NC(=O)CO/N=C(\N)CC(=O)NC1CCCCC1,10.9
17,Cn1c(SCc2ccon2)nc2ccccc2c1=O,12.3
18,COc1ccc(CCN(C)Cc2ccc(OCc3ccccc3)c(OC)c2)cc1OC,-42.9
19,CCC(C)[C@H]1CN=C(N)N1CCc1cccc2ccccc12 (some centres unmarked),11.7

row,SMILES,"hERG current change (%, negative = inhibition) at 1uM [%]"
1,CC(=O)c1cccc(NC(=O)C2COc3ccccc3O2)c1 (centres unmarked),9.41
2,COc1ccc(NCc2nnc(SCCN3CCCCC3)n2-c2ccc(C)cc2)cc1,-25
3,CC1=CC(=C2C(=O)c3ccccc3C2=O)C=C(C)O1,13.3
4,O=C(NC(Oc1ccccc1)C(Cl)(Cl)Cl)c1ccccc1 (centres unmarked),17.3
5,COc1cccc(OCCCOc2ccc([N+](=O)[O-])cc2Cl)c1,6.9
6,CC1CCCC(NC(=O)CSc2nnc(C(F)(F)F)n2C)C1C (centres unmarked),9.23
7,Cc1cccc(N2C(=O)c3ccccc3C2=O)n1,15
8,CC(=O)Nc1cc(S(=O)(=O)C(F)(F)F)ccc1Cl,9.59
9,Cc1nonc1OCC(C)(COc1nonc1C)NC(=O)c1ccccc1,10.6
10,O=C(C[n+]1ccc(-c2cc(C(=O)Nc3cccc(C(F)(F)F)c3)c3ccccc3n2)cc1)c1cccc([N+](=O)[O-])c1.[Br-],7.93
11,CCCS(=O)(=O)N1CCC(C(=O)N2CCN(Cc3ccccc3)CC2)CC1,5.77
12,COc1cccc(CN2C(=O)[C@H]3Cc4c([nH]c5ccccc45)C(C)(C)N3C2=O)c1,15.2
13,Cc1nn(S(=O)(=O)c2ccc(Cl)cc2)c(C)c1Sc1ccc([N+](=O)[O-])cc1,9.27
14,O=C(c1ccccc1-c1nc(-c2ccc(F)cc2)no1)N1CCCC1,-0.0459
15,CCOC(=O)c1cc2c(nc1N)CC(C)(CC)OC2 (centres unmarked),8.77
16,Cc1cc(N2CCOCC2)nc(N2CCOCC2)n1,12.7
17,CC(C)c1ccc(NC(=O)C[n+]2ccn(C3=C([O-])c4ccccc4C3=O)c2)cc1,11.2
18,CN(C)C(=O)Cn1cc(S(=O)(=O)Cc2ccccc2)c2ccccc21,10.6
19,CCc1n[nH]c(CCN)n1.Cl,14.8

row,SMILES,"hERG current change (%, negative = inhibition) at 1uM [%]"
1,CCOc1ccccc1C(=O)N1CCN(c2cccc(Cl)c2)CC1,4.05
2,Cc1ccc(C)c(NC(=O)CCOc2ccccc2)c1,13
3,O=C(c1ccc(Br)cc1)c1cc2ccc(O)cc2oc1=O,12.7
4,COc1ccc(-c2nc(C#N)c(N3CCc4ccccc4C3)o2)cc1OC,-2.91
5,Cc1ccc(OCc2cc(C(=O)NCC(C)(C)N3CCOCC3)no2)cc1C,4.83
6,O=C(NCc1nnc(SCc2ccccc2)n1-c1ccc(F)cc1)C12CC3CC(CC(C3)C1)C2,10.1
7,Cc1ccc(OCc2cc(C(=O)N(C)Cc3nccn3C)no2)cc1C,6.89
8,CC(C)(C)C(=O)/C=c1\[nH]c(=O)/c(=C\c2ccc(C#N)cc2)s1,3.56
9,Cc1nc(CCNC(=O)CC2C(=O)NCCN2Cc2ccccc2)sc1C (centres unmarked),7.68
10,CCOC(=O)N1CCN(c2c(N3CCN(c4ccccc4OC)CC3)c(=O)c2=O)CC1,5.69
11,O=C(CSc1nnc(-c2ccncc2)o1)Oc1ccccc1,15.1
12,Cc1ccc(CNS(=O)(=O)c2ccc3c(c2)N(C)CCO3)cc1,17.8
13,Cc1ccccc1NC(=O)N1CCNC(=O)C1CC(=O)Nc1cc(Cl)ccc1Cl (centres unmarked),-0.886
14,CC(C)(C)OC(=O)NCCCC[C@H](NC(=O)c1nc[nH]c1C(=O)NCc1ccccc1)C(=O)OC(C)(C)C,4.2
15,CCC1CCCCN1Cc1nc(Cc2ccccc2Cl)no1 (centres unmarked),4.88
16,COc1ccc(N2CCN(S(=O)(=O)c3cc4c(cc3C)NC(=O)CO4)CC2)cc1,8.04
17,COc1ccc(S(=O)(=O)NC2(C(F)(F)F)N=C3SCCN3C2=O)cc1 (centres unmarked),12.9
18,Cc1nc2ccccn2c1/C(O)=C1\C(=O)C(=O)N(CCN2CCOCC2)C1c1cccs1 (centres unmarked),-5.23
